# This is one part of the list. Sequences were assembled here from the parent chain. Values near 0.05 are background.
# B1: TEV protease; numbered along this chain (parent)
# chain: MGESLFKGPRDYNPISSSICHLTNESDGHTTSLYGIGFGPFIITNKHLFRRNNGTLVVQSLHGVFKVKDTTTLQQHLVDGRDMIIIRMPKDFPPFPQKLKFREPQREERICLVTTNFQTKSMSSMVSDTSCTFPSGDGIFWKHWIQTKDGQCGSPLVSTRDGFIVGIHSASNFTNTNNYFTSVPKNFMELLTNQEAQQWVSGWRLNADSVLWGGHKVFMVKPEEPFQPVKEATQL
# Variants of: B1
# Assay: raw area under fraction-flipped curve 0-4 h after induction (AUC4h, not background-subtracted), DNA-recorder readout of cleavage of the substrate (dimensionless); higher = more cleavage of the substrate by the protease variant
# Settings: temperature: 34 °C; time window: 0-4 h after rhamnose induction
# Method: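 In vivo DNA recorder in E. coli TOP10(DE3) ΔrhaA at 34 °C. Each TEVp single-site mutant (parent TEVp 0) is paired with a single-site variant of the 7-mer TEVs (canonical ENLYFQ|S). The substrate sits between flexible linkers in a Bxb1-sfGFP-TEVs-SsrA fusion, so cleavage stabilises Bxb1 and speeds flipping of a recombination array, read by NGS. The value is the raw area under the fraction-flipped curve over 0-4 h after rhamnose induction (AUC4h), with ≥20 reads per time point. It is not background-subtracted; inactive controls average about 0.047.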
# 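Further: Bxb1 expression induced with 0.2% (w/v) L-rhamnose at OD600 near 0.5, cultures sampled hourly, flipped fraction per protease–substrate barcode pair counted by paired-end Illumina sequencing.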
Variant,area with substrate ENLYAQS,area with substrate ENLYDQS,area with substrate ENLYEQS,area with substrate ENLYGQS,area with substrate ENLYHQS,area with substrate ENLYIQS,area with substrate ENLYKQS,area with substrate ENLYLQS,area with substrate ENLYMQS,area with substrate ENLYNQS,area with substrate ENLYPQS,area with substrate ENLYQQS,area with substrate ENLYRQS,area with substrate ENLYSQS,area with substrate ENLYTQS,area with substrate ENLYVQS,area with substrate ENLYWQS,area with substrate ENLYYQS,area with substrate ENLYCQS
Y12C,0.0563,0.0561,0.065,0.0557,0.0698,0.124,0.041,0.0898,0.0749,0.0684,0.0871,0.0673,0.0744,0.0724,0.0817,0.113,0.0846,0.0738,–
L73R,0.0455,0.0554,0.0696,0.0476,–,0.0597,0.0427,0.052,0.0498,0.0549,0.0517,0.0668,0.0495,0.0535,–,0.0653,0.0442,–,–
T115Y,0.0689,0.0806,0.0751,–,0.0684,–,–,–,–,–,0.0528,0.0423,0.0645,0.0775,–,–,0.0468,0.0657,–
P9R,0.0808,0.0716,0.0676,0.0749,0.0721,0.144,0.0757,0.0965,0.105,–,0.0976,0.0591,–,–,–,–,0.0904,0.0556,–
L99Y,0.0589,–,0.0679,0.0555,0.0519,0.0797,0.0231,–,0.0568,0.0584,0.0751,0.0361,0.0659,0.0698,0.0707,–,0.0745,–,–
S169D,0.0659,0.0538,0.0603,0.0518,0.0584,0.0675,0.0609,0.0902,0.0463,0.0522,0.0632,0.0607,–,0.0481,0.101,0.0563,0.0618,0.0695,0.0728
S169I,0.0585,0.0571,0.0591,0.0541,0.0614,0.0578,0.0582,–,0.0551,0.0518,0.0527,0.0618,0.0595,0.0618,–,0.0596,0.0604,0.0653,0.0542
S17P,0.0637,0.0616,0.0634,0.0589,0.0619,–,0.0553,–,0.0797,0.0587,0.0688,0.054,0.0582,0.0563,–,0.102,–,–,–
G166W,0.0543,–,0.055,0.0524,0.056,–,0.0464,–,0.0545,0.0765,0.0608,–,–,–,–,0.0564,0.0442,0.0545,0.0569
L22Y,0.0545,0.0497,0.0387,0.0512,0.0479,–,0.0822,–,0.0453,0.0473,0.0542,–,0.0494,0.0479,0.0555,0.0585,0.0537,0.0442,0.0623
F41A,0.0696,–,0.0618,0.0633,0.0601,0.112,0.0471,0.068,0.07,0.0704,–,0.0157,–,0.0641,0.0664,–,0.0727,0.0394,–
Q151T,0.0614,0.05,0.08,0.07,0.0578,–,–,–,0.0871,0.0708,0.0605,0.0439,0.0618,0.0655,–,0.115,0.0856,0.0698,–
T147M,0.0726,–,0.0687,0.0588,0.0652,–,–,–,0.0646,–,–,–,0.0534,0.0761,–,0.0866,0.0594,–,–
I15P,0.0592,–,0.0619,0.0578,0.0661,–,0.0603,–,0.0706,0.0746,0.0618,0.0663,0.0721,–,–,0.114,0.0594,–,–
F163I,0.0829,0.0621,0.0741,–,0.0557,0.102,–,–,–,0.0626,0.0084,0.0692,0.0585,0.0583,0.0608,0.0877,0.0429,0.0715,–
P225C,0.0723,–,0.0642,–,0.0638,0.0997,0.0623,–,0.0503,0.0768,–,–,–,–,0.0698,–,0.0764,0.0609,–
V229E,0.074,0.0399,0.0766,0.0581,0.0724,0.0942,0.0687,0.0748,0.0878,0.0733,0.0643,–,0.0325,0.0892,–,0.114,–,0.0747,–
Q198L,0.0721,0.0605,0.0584,0.0399,0.066,0.102,0.0658,–,–,0.0713,0.0178,0.06,0.0584,–,0.0734,0.0997,0.0646,0.0635,–
K66D,0.0652,0.0785,0.0543,0.0608,0.0713,0.119,0.0575,–,0.0818,0.053,–,–,0.0547,0.082,–,–,0.0813,0.0655,–
S18Q,0.0995,0.0602,0.08,0.0603,0.0843,0.159,0.0514,–,0.111,0.0741,0.0813,0.0575,0.0651,–,–,–,0.093,0.0699,–
R204G,0.0651,0.0736,0.0605,0.067,0.0666,0.114,0.0161,–,0.087,0.0489,0.0665,0.0703,0.0573,0.0264,0.0717,0.0913,0.05,0.0762,–
G37A,0.0816,0.0681,0.0629,0.0625,0.0668,0.132,0.0701,0.0776,–,0.0537,0.0903,0.0685,0.0598,–,–,0.118,0.0651,0.0634,–
V126I,0.0716,0.0629,0.0636,0.0638,0.074,–,–,0.0677,0.0753,0.0709,0.0753,0.0588,–,–,–,0.111,0.0706,–,–
V126C,0.095,0.0714,–,–,0.0684,0.127,0.0541,–,–,0.0901,0.0638,–,–,–,–,–,–,–,–
S123N,0.0677,0.0644,0.0529,0.067,0.071,0.135,0.061,0.0783,0.0857,0.0727,–,0.0757,–,0.0639,0.0969,0.138,0.0872,0.0544,0.102

# — the supplement of paper PMC12217912
